This is an account of results in publication PMC12640937, “Integrating drug effects on individual cardiac ionic currents and cardiac action potentials to understand nonclinical translation to clinical ECG changes” (Frontiers in Pharmacology, 2025).

The test system of assay [1] is adult human primary ventricular trabeculae. The experiment in a line: Action potential recordings from adult human ventricular trabeculae (sharp electrode). The following applies: for change in APD: diltiazem 3.84 then 38.4 µM or nifedipine 0.23 then 1 µM, alone.
The test system is the same in assay [2]. The following applies: ref Page et al., 2016, cited from earlier work.

Like-named read-outs stand apart in the source and are kept apart here.

With `COc1ccc([C@@H]2Sc3ccccc3N(CCN(C)C)C(=O)[C@@H]2OC(C)=O)cc1` [diltiazem], the “change in APD” value in assay [1] is reported as “concentration-dependent APD shortening”.

In the case of `CN(CCOc1ccc(NS(C)(=O)=O)cc1)CCc1ccc(NS(C)(=O)=O)cc1` [dofetilide], the “change in APD30, APD50, APD90” value is “further decreases in APD30 and APD50, whereas APD90 did not change” in assay [1] (dofetilide 0.01 µM added to 38.4 µM diltiazem or 1 µM nifedipine); “an increase in APD90, but not APD30 or APD50” in assay [1] (dofetilide 0.1 µM added to 38.4 µM diltiazem or 1 µM nifedipine); “prolonged APD30, APD50, and APD90” in assay [1] (dofetilide 0.1 µM alone, 1 Hz). Further, the “average percent change in APD90” value in assay [2] (100 nM dofetilide, 25 experiments, 11 donors, 95% CI 53.4% and 106.7%, Qu et al., 2017) was 80.1%. In the case of `COC(=O)C1=C(C)NC(C)=C(C(=O)OC)C1c1ccccc1[N+](=O)[O-]` [nifedipine], the “change in APD” value in assay [1] is on record as “concentration-dependent APD shortening”.

Take `COc1ccc(CCN(C)CCCC(C#N)(c2ccc(OC)c(OC)c2)C(C)C)cc1OC` (stereo not shown) [verapamil]: the “change in APD30, APD50, APD90” value in assay [2] is “did not alter APD30, APD50, or APD90”.
